Test results: patent US20200055919A1 (ACCELERON PHARMA, published 2020)

T1: BMP9 (UniProt Q9UK05 320-429)
T1 sequence (looked up): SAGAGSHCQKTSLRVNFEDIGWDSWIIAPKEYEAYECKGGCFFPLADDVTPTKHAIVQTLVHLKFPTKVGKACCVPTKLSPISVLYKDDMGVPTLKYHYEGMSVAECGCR

T2: GDF11 (UniProt O95390 299-407)
T2 sequence (looked up): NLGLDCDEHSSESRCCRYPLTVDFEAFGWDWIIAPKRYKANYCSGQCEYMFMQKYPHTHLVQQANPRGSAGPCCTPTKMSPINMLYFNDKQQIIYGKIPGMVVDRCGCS

T3: activin A (UniProt P08476 311-426)
T3 sequence (looked up): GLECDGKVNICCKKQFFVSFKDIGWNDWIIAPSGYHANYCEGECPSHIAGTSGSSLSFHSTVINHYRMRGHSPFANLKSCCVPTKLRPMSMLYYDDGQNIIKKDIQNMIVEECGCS


Tests used:
Assay in all cases: cell-based or functional assay
BMP9 = target: T1, BMP9
GDF11 = target: T2, GDF11
activin A = target: T3, activin A

Row | Binder | IC50 of inhibition of ligand signaling, A204 CAGA12 luciferase reporter assay (BMP9) | IC50 of inhibition of ligand signaling, A204 CAGA12 luciferase reporter assay (GDF11) | IC50 of inhibition of ligand signaling, A204 CAGA12 luciferase reporter assay (activin A)
1 | ActRIIB-G1Fc (unmodified ActRIIB-Fc homodimer) (Fc fusion) GRGEAETRECIYYNANWELERTNQSGLERCEGEQDKRLHCYASWRNSSGTIELVKKGCWLDDFNCYDRQECVATEENPQVYFCCCEGNFCNERFTHLPEAGGPEVTYEPPPTAPTG[human IgG1 Fc and a few adjoining residues not printed] | 0.031 µg/mL | 0.009 µg/mL | 0.008 µg/mL
2 | ActRIIB(F82I)-G1Fc homodimer (Fc fusion) GRGEAETRECIYYNANWELERTNQSGLERCEGEQDKRLHCYASWRNSSGTIELVKKGCWLDDINCYDRQECVATEENPQVYFCCCEGNFCNERFTHLPEAGGPEVTYEPPPTAPTG[human IgG1 Fc and a few adjoining residues not printed] | 0.277 µg/mL | 0.009 µg/mL | 0.011 µg/mL
3 | ActRIIB(F82K)-G1Fc homodimer (Fc fusion) GRGEAETRECIYYNANWELERTNQSGLERCEGEQDKRLHCYASWRNSSGTIELVKKGCWLDDKNCYDRQECVATEENPQVYFCCCEGNFCNERFTHLPEAGGPEVTYEPPPTAPTG[human IgG1 Fc and a few adjoining residues not printed] | ~5 µg/mL | 0.015 µg/mL | 0.01 µg/mL
4 | ActRIIB(K55A)-G1Fc homodimer (Fc fusion) GRGEAETRECIYYNANWELERTNQSGLERCEGEQDARLHCYASWRNSSGTIELVKKGCWLDDFNCYDRQECVATEENPQVYFCCCEGNFCNERFTHLPEAGGPEVTYEPPPTAPTG[human IgG1 Fc and a few adjoining residues not printed] | 0.122 µg/mL | 0.011 µg/mL | 0.015 µg/mL
5 | ActRIIB(K55E)-G1Fc homodimer (Fc fusion) GRGEAETRECIYYNANWELERTNQSGLERCEGEQDERLHCYASWRNSSGTIELVKKGCWLDDFNCYDRQECVATEENPQVYFCCCEGNFCNERFTHLPEAGGPEVTYEPPPTAPTG[human IgG1 Fc and a few adjoining residues not printed] | 0.29 µg/mL | 0.014 µg/mL | 0.019 µg/mL
6 | ActRIIB(L79K)-Fc homodimer (Fc fusion) GRGEAETRECIYYNANWELERTNQSGLERCEGEQDKRLHCYASWRNSSGTIELVKKGCWKDDFNCYDRQECVATEENPQVYFCCCEGNFCNERFTHLPEAGGPEVTYEPPPTAPTG[human IgG1 Fc and a few adjoining residues not printed] | – | 0.477 µg/mL | –
7 | ActRIIB(E50K)-Fc homodimer (Fc fusion) GRGEAETRECIYYNANWELERTNQSGLERCKGEQDKRLHCYASWRNSSGTIELVKKGCWLDDFNCYDRQECVATEENPQVYFCCCEGNFCNERFTHLPEAGGPEVTYEPPPTAPTG[human IgG1 Fc and a few adjoining residues not printed] | 0.721 µg/mL | 0.18 µg/mL | 0.132 µg/mL
8 | ActRIIB(E50P)-Fc homodimer (Fc fusion) GRGEAETRECIYYNANWELERTNQSGLERCPGEQDKRLHCYASWRNSSGTIELVKKGCWLDDFNCYDRQECVATEENPQVYFCCCEGNFCNERFTHLPEAGGPEVTYEPPPTAPTG[human IgG1 Fc and a few adjoining residues not printed] | ~3 µg/mL | 0.638 µg/mL | 0.756 µg/mL
9 | ActRIIB(E52A)-Fc homodimer (Fc fusion) GRGEAETRECIYYNANWELERTNQSGLERCEGAQDKRLHCYASWRNSSGTIELVKKGCWLDDFNCYDRQECVATEENPQVYFCCCEGNFCNERFTHLPEAGGPEVTYEPPPTAPTG[human IgG1 Fc and a few adjoining residues not printed] | 0.359 µg/mL | 0.071 µg/mL | 0.198 µg/mL
10 | ActRIIB(E52K)-Fc homodimer (Fc fusion) GRGEAETRECIYYNANWELERTNQSGLERCEGKQDKRLHCYASWRNSSGTIELVKKGCWLDDFNCYDRQECVATEENPQVYFCCCEGNFCNERFTHLPEAGGPEVTYEPPPTAPTG[human IgG1 Fc and a few adjoining residues not printed] | ~10 µg/mL | 0.296 µg/mL | 0.762 µg/mL
11 | ActRIIB(K55D)-Fc homodimer (Fc fusion) GRGEAETRECIYYNANWELERTNQSGLERCEGEQDDRLHCYASWRNSSGTIELVKKGCWLDDFNCYDRQECVATEENPQVYFCCCEGNFCNERFTHLPEAGGPEVTYEPPPTAPTG[human IgG1 Fc and a few adjoining residues not printed] | 5.5 µg/mL | 0.365 µg/mL | 0.396 µg/mL
12 | ActRIIB(K55R)-Fc homodimer (Fc fusion) GRGEAETRECIYYNANWELERTNQSGLERCEGEQDRRLHCYASWRNSSGTIELVKKGCWLDDFNCYDRQECVATEENPQVYFCCCEGNFCNERFTHLPEAGGPEVTYEPPPTAPTG[human IgG1 Fc and a few adjoining residues not printed] | 0.777 µg/mL | 0.318 µg/mL | 0.206 µg/mL
13 | ActRIIB(Y60K)-Fc homodimer (Fc fusion) GRGEAETRECIYYNANWELERTNQSGLERCEGEQDKRLHCKASWRNSSGTIELVKKGCWLDDFNCYDRQECVATEENPQVYFCCCEGNFCNERFTHLPEAGGPEVTYEPPPTAPTG[human IgG1 Fc and a few adjoining residues not printed] | – | 0.414 µg/mL | –
14 | ActRIIB(Y60P)-Fc homodimer (Fc fusion) GRGEAETRECIYYNANWELERTNQSGLERCEGEQDKRLHCPASWRNSSGTIELVKKGCWLDDFNCYDRQECVATEENPQVYFCCCEGNFCNERFTHLPEAGGPEVTYEPPPTAPTG[human IgG1 Fc and a few adjoining residues not printed] | – | 0.544 µg/mL | –
15 | ActRIIB(K74R)-Fc homodimer (Fc fusion) GRGEAETRECIYYNANWELERTNQSGLERCEGEQDKRLHCYASWRNSSGTIELVRKGCWLDDFNCYDRQECVATEENPQVYFCCCEGNFCNERFTHLPEAGGPEVTYEPPPTAPTG[human IgG1 Fc and a few adjoining residues not printed] | 0.165 µg/mL | 0.045 µg/mL | –
16 | ActRIIB(A24N)-Fc homodimer (Fc fusion) GRGENETRECIYYNANWELERTNQSGLERCEGEQDKRLHCYASWRNSSGTIELVKKGCWLDDFNCYDRQECVATEENPQVYFCCCEGNFCNERFTHLPEAGGPEVTYEPPPTAPTG[human IgG1 Fc and a few adjoining residues not printed] | 0.409 µg/mL | 0.099 µg/mL | 0.128 µg/mL
17 | ActRIIB(L79R)-Fc homodimer (Fc fusion) GRGEAETRECIYYNANWELERTNQSGLERCEGEQDKRLHCYASWRNSSGTIELVKKGCWRDDFNCYDRQECVATEENPQVYFCCCEGNFCNERFTHLPEAGGPEVTYEPPPTAPTG[human IgG1 Fc and a few adjoining residues not printed] | – | 0.234 µg/mL | –
18 | ActRIIB(F82W)-Fc homodimer (Fc fusion) GRGEAETRECIYYNANWELERTNQSGLERCEGEQDKRLHCYASWRNSSGTIELVKKGCWLDDWNCYDRQECVATEENPQVYFCCCEGNFCNERFTHLPEAGGPEVTYEPPPTAPTG[human IgG1 Fc and a few adjoining residues not printed] | – | 0.276 µg/mL | –
19 | ActRIIB(F82W/N83A)-Fc homodimer (Fc fusion) GRGEAETRECIYYNANWELERTNQSGLERCEGEQDKRLHCYASWRNSSGTIELVKKGCWLDDWACYDRQECVATEENPQVYFCCCEGNFCNERFTHLPEAGGPEVTYEPPPTAPTG[human IgG1 Fc and a few adjoining residues not printed] | ~40 µg/mL | 0.389 µg/mL | –
20 | ActRIIB(R40A)-Fc homodimer (Fc fusion) GRGEAETRECIYYNANWELEATNQSGLERCEGEQDKRLHCYASWRNSSGTIELVKKGCWLDDFNCYDRQECVATEENPQVYFCCCEGNFCNERFTHLPEAGGPEVTYEPPPTAPTG[human IgG1 Fc and a few adjoining residues not printed] | 1.21 µg/mL | 0.591 µg/mL | –
